Reference: PubChem BioAssay AID1345083 (National Center for Advancing Translational Sciences (NCATS), 2018)
Values joined by “and” are separate entries in the source; they are usually repeats but may differ in a detail not shown here. Equal values may be shown once. Among all 94,000 compounds or so, about 6,200 (6.6%) were called active. The shares of active, inactive and inconclusive entries below differ from those in the screen. The call rests on the fitted dose curve; in most records, active means well fitted inhibition curve with a large enough effect; inconclusive means small, poorly fitted or top-dose-only effect; inactive means flat fitted curve, though single readings scatter. Potencies of inconclusive entries are doubtful fits and often do not repeat.

Assay: Cytotoxic Profiling in HEK 293 Cell Line of Diverse Libraries Using Quantitative High-Throughput Screening; further: nearly all actives have a fitted effect of over 60% in size
Conditions: HEK 293 viability, ATP luminescence (CellTiter-Glo), 48-72 h; activity change, negative = cytotoxicity: at 115 µM (top of the series) unless noted; series mostly up to 115 µM
Outline: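 ATP-coupled CellTiter-Glo luminescence served as viability read-out, recorded 10 min after reagent addition at room temperature. HEK 293 cells, 250 cells/well, had been incubated with pintool-transferred compound for 48 or 72 hr at 37 degree Celsius.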
On the % scale 0 is the no-effect control and ±100 the full control effect; potency means the concentration at half of the fitted maximal effect; tags describe the fitted curve by direction and shape.

SMILES | Potency | activity change, negative = cytotoxicity | outcome
O=C(CCc1conc1-c1ccc(F)cc1)NCc1cccc(Br)c1 | inconclusive: 50.1 µM [inhibitor, partial curve, poor fit] | – | –
CCOc1cccc2c1OC[C@@H]1CN(CCC#N)C(=O)CCN(C(=O)c3cccs3)[C@H]21 | – | inactive: -0.266% | –
COc1ccc(CC(=O)NC2CCN(c3cc(-c4ccc(F)cc4)[nH]n3)CC2)cc1OC | inconclusive: 50.1 µM [inhibitor, partial curve, poor fit] | – | –
O=C(C[C@@H]1C[C@H]2O[C@H](CNC3CCNCC3)[C@@H](O)[C@H]2O1)N1CCOCC1 | – | – | inactive
C[C@H]1[C@@H]2[C@@H](O)C([C@H](C)C(=O)NC3CCCCC3)CC[C@@]2(C)CC[C@@H]1NC(=O)c1cnccn1 (stereo not given in full) | – | inactive: -18.2% | –
CCCCOC(=O)N1CCC2(CC1)[C@H](C(=O)OCC)[C@@H](OC)C(=O)N2C | – | inactive: -10.3% | –
O=C([C@@H]1C[C@H](c2ccc(F)cc2)N(Cc2ccccc2Cl)C1)N1CCN(CCO)CC1 | inconclusive: 56.2 µM [inhibitor, partial curve, poor fit] | – | –
C=CCNC(=O)N1CCOC(CN(CC(C)C)C(=O)c2ccccc2)C1 (stereo not given) | – | inactive: 0.229% | –
O=C1COCC2(CN(Cc3ccsc3)C2)CN1Cc1cccc(OC(F)(F)F)c1 | active: 63.1 µM | – | –
O=C(NCc1ccccc1Cn1cccn1)c1ccc2cccc(F)c2n1 | inconclusive: 35.5 µM [inhibitor, full curve, poor fit] | – | –
COCCC(=O)N1C[C@@H]2CCCN3CCC[C@@H]([C@H]23)[C@H]1CCCC(=O)N1CCOCC1 | – | inactive: 16.1% | –
COC[C@@H]1CN(S(=O)(=O)c2ccccc2F)C[C@H]1C(N)=O | – | inactive: -1.42% | –
Cc1ncccc1C(=O)N1CCCCCC1c1nnc(-c2ccccc2)o1 (stereo not given) | – | inactive: -12.8% | –
Cn1cnc([S+](=O)([O-])N2CC(COc3ccccc3)C3(CN(c4ccccc4)C3)C2)c1 (stereo not given) | inconclusive: 100 µM [inhibitor, partial curve] | – | –
O=C(NCc1cccnc1)C1CCCN(c2ccnc3ccnn23)C1 (stereo not given) | – | inactive: -27.3% | –
COc1ccc(CN2C[C@H](O)C[C@H]2c2nc(Cc3ccccc3)no2)cc1 | inconclusive: 112 µM [inhibitor, single point] | – | –
CC(C)n1nccc1S(=O)(=O)N[C@@H]1[C@@H](Cc2ccccc2)[C@H]2OCC[C@@H]12 | inconclusive: 22.4 µM [inhibitor, full curve] | – | –
CN(C)C[C@@H]1CN(C)C[C@H]1NS(=O)(=O)c1ccccc1C(F)(F)F | – | inactive: -19.5% | –
COc1ccc(C2(C(=O)NCC3CCCCC(=O)N3)CC2)cc1 (stereo not given) | – | inactive: -1.45% | –
O=C(O)Cn1nc(-c2ccncc2)nc1C1CCOC1 (stereo not given) | inconclusive: 10 µM [inhibitor, full curve, poor fit] | – | –

SMILES | Potency | activity change, negative = cytotoxicity | outcome
CC(NC(=O)OCc1ccccc1)c1nc2cccnc2n1Cc1ccccc1 (stereo not given) | inconclusive: 89.1 µM [inhibitor, partial curve, poor fit] and inconclusive: 79.4 µM [inhibitor, partial curve, poor fit] | – | –
Cc1ccc(OCc2nc(C3CN(C(=O)Cc4ccsc4)C3)no2)cc1 | active: 89.1 µM | – | –
COc1cccc(CNC(=O)c2nnn3c2COC(c2ccc(C)cc2)C3)c1 (stereo not given) | inconclusive: 39.8 µM [inhibitor, partial curve, poor fit] | – | –
O=C(CN1CCCC1=O)NC1CCCc2nc(-c3ccccc3)ncc21 (stereo not given) | – | inactive: 7.55% | –
Cc1noc(C)c1-c1cc2cc(CN3CCN(C)CC3)oc2c(NC2CCN(C)CC2)n1 | inconclusive: 100 µM [inhibitor, partial curve] | – | –
O=C(Cc1ccsc1)N1CCC2(CC1)CN(Cc1ccccc1)CC2CO (stereo not given) | inconclusive: 44.7 µM [inhibitor, partial curve, poor fit] | – | –
CC(C)NC(=O)c1ccc2oc(-c3cccnc3Cl)nc2c1 | – | inactive: -20.2% | –
Cc1cc(Cl)ccc1-n1nc(C)c([C@@H]2C=C[C@@H](NC(=O)c3ccc(N(C)C)cc3)C2)c1C | inconclusive: 50.1 µM [inhibitor, partial curve, poor fit] | – | –
COc1cccc(-c2ccc(C(=O)N3CCC(NC(=O)C4CCCC4)CC3)cc2)c1 | inconclusive: 56.2 µM [inhibitor, partial curve, poor fit] and inconclusive: 44.7 µM [inhibitor, partial curve, poor fit] | – | –
CC(C)c1ccc(NC(=O)CN2C(=O)NC(c3ccccc3Cl)C3=C2COC3=O)cc1 (stereo not given) | inconclusive: 56.2 µM [inhibitor, partial curve, poor fit] | – | –
O=C1c2cc(N3CCOCC3)nc(-c3cnc4[nH]ccc4c3)c2CN1CC1CC1 | inconclusive: 10 µM [inhibitor, full curve, poor fit] | – | –
COc1ccc(-c2nc(-c3c(C)noc3C)cc3c2cc(C)n3C)cn1 | inconclusive: 79.4 µM [inhibitor, partial curve] | – | –
O=C(CCC(=O)N1CCn2nc(Cc3ccccc3)cc2C1)NC1CCCC1 | – | – | inactive
O=C(NCc1ccccc1)c1ccc2c(c1)OCCN(CCC(F)(F)F)C2 | inconclusive: 63.1 µM [inhibitor, partial curve, poor fit] | – | –
O=C(C1CCN([S+](=O)([O-])c2cccc(C(F)(F)F)c2)CC1)N1CCC(N2CCOCC2=O)CC1 | inconclusive: 28.2 µM [inhibitor, partial curve] | – | –
COCC(NC(=O)c1ccc2nc(C3CCCCC3)oc2c1)c1ccnn1C (stereo not given) | inconclusive: 44.7 µM [inhibitor, partial curve, poor fit] | – | –
CN(C)C[C@@H]1CN(Cc2ccccn2)C[C@H]1NC(=O)c1cccc(Cl)c1 | inconclusive: 89.1 µM [inhibitor, single point] | – | –
O=C(c1ccccc1F)N1CCC(O)(c2csc(CN3CCc4ccccc4C3)n2)CC1 | inconclusive: 79.4 µM [inhibitor, partial curve, poor fit] | – | –
C/C=C(\C)CN1CCCC(C(=O)Nc2ccccc2-c2ccc(OC)cc2)C1 (stereo not given) | inconclusive: 15.8 µM [inhibitor, full curve, poor fit] | – | –
Cc1nc(-c2ccc(Cl)cc2)n(Cc2ccc(F)cc2)c(=O)c1CCO | active: 20 µM | – | –
